Reference: ChEMBL document CHEMBL4888484, “Replenishing the malaria drug discovery pipeline: Screening and hit evaluation of the MMV Hit Generation Library 1 (HGL1) against asexual blood stage Plasmodium falciparum ,using a nano luciferase reporter read-out” (2022)
Several values for one entry are separate records, joined by “and”; a condition that tells them apart may be missing. Identical values can stand only once. Among all 150,000 compounds or so, about 540 (0.36%) showed an effect of 50% or more. This is one part of the list.

System: Plasmodium falciparum
Experiment: Primary screen in NF54 nanoGlo assay, in single point, at 2uM, 72h; a lower Z score goes with more inhibition
Format: functional, Erythrocyte
Details: timepoint 72 hour

`COCCN(CC(=O)Nc1nc(-c2ccccc2)cn1-c1ccc(C)c(F)c1)C(=O)COC` was tested. Which “% Inhibition” value did it give?
Its value is -10%.

And the Z score?
The Z score was 1.34.

With `Cc1cccnc1[C@@H](NC(=O)CCCn1cncn1)C1CC1` as the molecule, how does the “% Inhibition” value read?
Its value is -3%.

What about the Z score of the same molecule?
Its Z score is 0.55.

For `c1cc(-c2nc(-c3ccsc3)no2)n(C2CCCC2)n1`, which “% Inhibition” value is on record?
The value was -8%.

And the Z score?
Its Z score is 0.79.

With `COc1cc(-c2noc(NCc3ccc4c(c3)OCO4)n2)sn1` as the molecule, how does the “% Inhibition” value read?
Its value is -9%.

What about the Z score of the same molecule?
Its Z score is 1.21.

With `CC(=O)N1CC[C@H](CN(C)Cc2ccc(OC(F)F)c(Cl)c2)C1` as the molecule, how does the “% Inhibition” value read?
The value was -10%.

What about the Z score of the same molecule?
The Z score was 1.87.

What does the source list for `COc1cccc(Oc2nccn3c(=O)n(CC(=O)Nc4ccc5c(c4)OCCO5)nc23)c1`?
% Inhibition: -8%; Z score: 0.76

`Cc1noc(C)c1NC(=O)[C@H]1CC(=O)N(c2ccccc2)C1` was tested. Which “% Inhibition” value did it give?
The value was 2%.

And the Z score?
Its Z score is -0.27.

With `CCOc1ccnc(N(C)CCc2ccccn2)n1` as the molecule, how does the “% Inhibition” value read?
Its value is -3%.

And the Z score?
The Z score was 0.49.

Which results are given for `CN1CCc2ccc(NC(=O)NC[C@](C)(O)c3ccccc3Cl)cc21`?
% Inhibition: -2%; Z score: 0.44

With `Cc1ocnc1CNC(=O)[C@H]1CC(=O)N(c2ccc(F)cc2F)C1` as the molecule, how does the “% Inhibition” value read?
The value was -5%.

What about the Z score of the same molecule?
Its Z score is 0.77.

What does the source list for `C#Cc1cccc(N(C)C(=O)c2cc(S(=O)(=O)N(C)C)oc2C)c1`?
% Inhibition: 0%; Z score: 0.01

How did the “% Inhibition” value turn out when `Cc1nc(-c2ccc(N3CCN(C(=O)NC4CCCCC4)CC3)cc2)no1` was run?
The value was 4%.

What about the Z score of the same molecule?
Its Z score is -0.72.

With `CC(NC1CCCC1(C)C)C(=O)N(C)C(C)C` (stereo not given) as the molecule, how does the “% Inhibition” value read?
The value was -1%.

What about the Z score of the same molecule?
Its Z score is 0.09.

For `O=C1C2C(C(=O)N1c1ccc(Br)cc1)C2(c1ccccc1)c1ccccc1` (stereo not given), which “% Inhibition” value is on record?
Its value is 1%.

What about the Z score of the same molecule?
The Z score was -0.14.

Which “% Inhibition” value does the source give for `CC(C(=O)N1CCN(C2CCNC(=O)CC2)CC1)C(C)(C)C` (stereo not given) here?
The value was 4%.

What about the Z score of the same molecule?
The Z score was -0.39.

For `CCC(c1cccs1)N1C(=O)[C@H]2CN(C)C[C@H]2C1=O` (stereo not given in full), which “% Inhibition” value is on record?
Its value is -12%.

What about the Z score of the same molecule?
The Z score was 1.44.

Which “% Inhibition” value does the source give for `Cc1ccncc1CC(=O)Nc1ccccc1NCC1CCCCC1` here?
Its value is -11%.

What about the Z score of the same molecule?
The Z score was 1.79.

With `Cc1ncnc(N2CCC([C@H](C)N3CCN(C)CC3)CC2)c1C` as the molecule, how does the “% Inhibition” value read?
Its value is -6%.

What about the Z score of the same molecule?
The Z score was 0.53.

How did the “% Inhibition” value turn out when `CN(C)C(=O)[C@H](NC(=O)Nc1ccc2c(c1)OCCCO2)c1ccccc1` was run?
The value was 5%.

What about the Z score of the same molecule?
Its Z score is -0.55.

For `CNC(=O)[C@@H](NC(=O)c1ccco1)C(C)C`, which “% Inhibition” value is on record?
Its value is -5%.

What about the Z score of the same molecule?
The Z score was 0.83.

Which results are given for `Cc1nc(CNC(=O)Nc2cccc3c2OC(C)(C)C3)sc1C`?
% Inhibition: -9%; Z score: 1.14

What does the source list for `COc1ccc(Oc2cc3c(cc2NS(=O)(=O)c2cc(OC)ccc2OC)n(C)c(=O)n3C)cc1`?
% Inhibition: -2%; Z score: 0.27

With `O=C(Nc1ncc(-c2ccccc2F)s1)N1CCC(O)CC1` as the molecule, how does the “% Inhibition” value read?
The value was -3%.

What about the Z score of the same molecule?
The Z score was 0.33.

For `CCOc1cccc(OCC)c2c(C)nc(C)c1-2`, which “% Inhibition” value (2 µM) is on record?
The value was 1% and -13%.

How did the “% Inhibition” value turn out when `COc1ccc(C[C@H](N)C(=O)Nc2ccc(N(C)C)c(Cl)c2)cc1` was run?
Its value is -5%.

What about the Z score of the same molecule?
The Z score was 1.04.

`O=C(N[C@@H]1CCCC[C@H]1OC(F)F)c1cnn2ncccc12` was tested. Which “% Inhibition” value did it give?
The value was -8%.

What about the Z score of the same molecule?
Its Z score is 1.27.

What does the source list for `CN1c2ccccc2C(=O)NC12CCN(C(=O)Nc1cccc(Cl)c1)CC2`?
% Inhibition: -9%; Z score: 1.13

Which “% Inhibition” value does the source give for `COC(=O)C1=C(C(=O)OC)SC(=C2C(=S)C(C)(C)N(C(=O)COc3ccc4ccccc4c3)c3ccccc32)S1` here?
The value was 33%.

What about the Z score of the same molecule?
The Z score was -0.65.

With `CCN(Cc1cnn(C)c1)Cc1cccc(OC)c1OC[C@@H](O)CN1CCOCC1` as the molecule, how does the “% Inhibition” value read?
Its value is -15%.

And the Z score?
Its Z score is 1.78.

With `O=C(Nc1ccc(F)cc1Cl)c1cccc(S(=O)(=O)NCc2cccs2)c1` as the molecule, how does the “% Inhibition” value read?
The value was 4%.

What about the Z score of the same molecule?
Its Z score is -0.54.

For `COc1cc(OC)nc(N2Cc3cnc(CC(C)C)nc3C2)n1`, which “% Inhibition” value is on record?
Its value is 1%.

What about the Z score of the same molecule?
Its Z score is -0.15.

What does the source list for `CCOCC(C)(C)NCC(=O)N1CCC(C(=O)N2CCCCCC2)CC1`?
% Inhibition: -4%; Z score: 0.5

Which “% Inhibition” value does the source give for `Cc1csc(NC(=O)c2cc(O)ncn2)n1` here?
Its value is -11%.

What about the Z score of the same molecule?
Its Z score is 1.96.

What does the source list for `Cc1ccc(-c2cc(N)n(CC3CCCCC3)n2)cc1`?
% Inhibition: -12%; Z score: 1.6

Which results are given for `CCc1nsc(N2CCC[C@H]2c2ncc(Br)cn2)n1`?
% Inhibition: 4%; Z score: -0.71

Which results are given for `CCN=C(N)N1CCN(c2ncc(Br)c(OC)n2)CC1`?
% Inhibition: -13%; Z score: 1.12

For `CCN1CCC[C@@]2(CCN(c3ncc(C(=O)O)cc3Cl)C2)C1=O`, which “% Inhibition” value is on record?
Its value is -11%.

And the Z score?
Its Z score is 1.86.

With `Cc1cccc(-c2noc(-c3ccc4c(=O)n(Cc5ccccc5F)c(=O)[nH]c4c3)n2)c1` as the molecule, how does the “% Inhibition” value read?
Its value is 14%.

What about the Z score of the same molecule?
The Z score was -1.6.

For `CC(C)[C@H](NC(=O)c1ccccc1F)C(=O)NC1CC(N2CCCCC2)C1` (stereo not given in full), which “% Inhibition” value is on record?
The value was -6%.

What about the Z score of the same molecule?
The Z score was 0.73.

How did the “% Inhibition” value turn out when `Cc1cc(C)nc(N2CCC[C@H](CCC(=O)N3CCN(c4ccccn4)CC3)C2)n1` was run?
Its value is -8%.

What about the Z score of the same molecule?
Its Z score is 1.06.

What does the source list for `Cc1cccn2c(CN3CCC(O)CC3)c(C(=O)N3CCCCC3)nc12`?
% Inhibition: 1%; Z score: -0.25

How did the “% Inhibition” value turn out when `CC(C)(CC(F)F)C(=O)N1CCCCO1` was run?
The value was 0%.

And the Z score?
The Z score was -0.03.

For `O=C(O)[C@@]1(Cc2ccccc2F)CCCN(c2cnccn2)C1`, which “% Inhibition” value is on record?
The value was -11%.

What about the Z score of the same molecule?
Its Z score is 1.91.
